In PMC6451091 one finds binding signal data, which are given here for 60 sequences.

The list shows a part of the results. For part of these data: At the low end of the ranking, values are background and their order means little. For part of these data: The protein was read in a cell extract, so binding may be indirect.

Common to all, as to settings: 20 mM HEPES pH 7.9, 100 mM NaCl, 1 mM DTT, 0.2 mg/mL BSA, 0.02% Triton X-100, 2% milk, 0.4 mg/mL salmon testes DNA; 1 h; temperature not stated; high values mean tight binding; double strand, one strand shown; sequences stand for … in GCCTAGCAC…GTGCTAGGTCTTGATTCGCTTGACGCTGCTG
Test [1] deals with PU.1 (IVT) (UniProt P17947). Description: protein-binding microarray (PBM).
The target of test [2] is PU.1 (endogenous, THP-1 nuclear extract) (UniProt P17947). The test is described as follows: nuclear extract protein-binding microarray (nextPBM).
Test [3] addresses T1, FLI1 (endogenous, THP-1 nuclear extract) (UniProt Q01543).
T1 sequence: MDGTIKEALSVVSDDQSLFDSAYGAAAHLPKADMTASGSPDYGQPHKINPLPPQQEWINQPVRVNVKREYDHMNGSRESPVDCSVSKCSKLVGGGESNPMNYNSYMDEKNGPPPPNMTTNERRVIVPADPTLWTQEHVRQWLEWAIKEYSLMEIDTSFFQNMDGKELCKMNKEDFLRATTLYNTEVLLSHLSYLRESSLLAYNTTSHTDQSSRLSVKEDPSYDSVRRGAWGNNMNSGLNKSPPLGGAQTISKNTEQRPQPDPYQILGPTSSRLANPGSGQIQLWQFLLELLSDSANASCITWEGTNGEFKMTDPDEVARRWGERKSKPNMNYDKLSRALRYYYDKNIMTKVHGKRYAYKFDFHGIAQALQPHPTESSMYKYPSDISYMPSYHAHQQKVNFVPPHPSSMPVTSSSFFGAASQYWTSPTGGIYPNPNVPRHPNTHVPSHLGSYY
The description is as above.

For the sequence AGATTCAGGAAGTGCCGTGG, the binding signal turned out to be 4.59 z-score in test [1], 5.48 z-score in test [2] and 3.62 z-score in test [3].
For CAAATGAGGAACTGATGAGG the same measures were 5.61 z-score, 6.48 z-score and 1.89 z-score.
For AGAAAAGAGAAGTGCGACTC the same measures were 3.35 z-score, 3.61 z-score and 0.776 z-score.
For CAAATGAGGAAGTGGCAGCT the same measures were 7.39 z-score, 7.04 z-score and 4.27 z-score.
Take TCATAGAGGAACTGCGTACA: the binding signal in test [1] came to 2.64 z-score; in test [2], 2.76 z-score; in test [3], 0.797 z-score.
For CCTAGGAGGAAGTGGGGAGA the same measures were 3.87 z-score, 4.56 z-score and 2.56 z-score.
For GAGATAGGGAAGTGGTAAAT, the binding signal in test [1] stood at 4.55 z-score; in test [2] it was 4.7 z-score; in test [3], 1.78 z-score.
For AAGAAGGGGAAGTGACTTGC the same measures were 6.45 z-score, 6.5 z-score and 3.22 z-score.
In the case of TGAAAGAGGAAGTGCTACCA, the binding signal in test [1] was 7.5 z-score; in test [2], 7.23 z-score; in test [3], 3.9 z-score.
For GATAAGAGGAAGTCCTGTGT the same measures were 6.22 z-score, 6.59 z-score and 2.96 z-score.
For AAAAAAAGGAAGTCTGTTTT, the binding signal in test [1] worked out at 6.43 z-score; in test [2] it was 5.85 z-score; in test [3], 2.55 z-score.
For AGAGACGGGAAGTGAGACAA the same measures were 2.56 z-score, 2.56 z-score and 2.29 z-score.
For GAAAACAGGAGGTCCCATAG the same measures were -0.0923 z-score, -0.016 z-score and -0.168 z-score.
In the case of AAAAAGAGGAAATGAAAAGA, the binding signal in test [1] was 6.67 z-score; in test [2], 6.73 z-score; in test [3], 3.51 z-score.
For CAGTAAGGGAAGTGCCCTCG the same measures were 2.4 z-score, 2.66 z-score and 1.32 z-score.
For CGCAAGGGGAACTGGGATTT the same measures were 1.96 z-score, 2.68 z-score and 1.24 z-score.
As to GATAAGAGGAAGACCTCTGT, the binding signal was determined as 1.92 z-score in test [1], 2.61 z-score in test [2] and 1.11 z-score in test [3].
For GGTGGGAGGAAGTGATCGGT the same measures were 3.72 z-score, 3.62 z-score and 2.79 z-score.
For GATACGAGGAAGTCCTCTGT the same measures were 2.67 z-score, 2.74 z-score and 1.35 z-score.
As to GAAAACAGGAAGTCCCTTAG, the results for the binding signal in test [1], in test [2] and in test [3] were 7.61 z-score, 6.97 z-score and 4.83 z-score, respectively.
For the sequence GGAAAGGGGAAGTCAGAAAG, the binding signal in test [1] was determined as 6.32 z-score; in test [2], 6.82 z-score; in test [3] it was 2.86 z-score.
For ACAAAAAGGAACTGTGGCCC the same measures were 1.57 z-score, 1.54 z-score and 0.85 z-score.
For AAAAGGAGGAAGTGATCAAA, the binding signal in test [1] was determined as 6.28 z-score; in test [2], 6.56 z-score; in test [3], 3.45 z-score.
For CAAGAGAGGAAGTAACAGCA, the binding signal came out at 4.89 z-score in test [1], 5.35 z-score in test [2] and 2.73 z-score in test [3].
As for AGAAAGAGGAAGAGAGAGGG, the figures for the binding signal in test [1], in test [2] and in test [3] were 4.5 z-score, 5.17 z-score and 1.56 z-score, respectively.
For CAGATGAGGAAGTGATGCTT the same measures were 5.97 z-score, 6.54 z-score and 2.45 z-score.
For GATAAGAGGAAGTGCTCTGT the same measures were 6.52 z-score, 6.71 z-score and 3.33 z-score.
For the sequence ACAAAGGGGAAGTGGAAGAA, the binding signal is 6.15 z-score in test [1], 6.62 z-score in test [2] and 2.63 z-score in test [3].
For GTAAACAGGAAGTCCCATAG the same measures were 5.74 z-score, 6.53 z-score and 4.86 z-score.
For TGTTTGAGGAACTGAAATAG the same measures were 3.85 z-score, 3.82 z-score and 1.12 z-score.
For AAAGAGAGGAAGTCCCAAGA the same measures were 3.78 z-score, 3.8 z-score and 2.24 z-score.
As to GAAAAGAGGAACAGCCTCTG, the values for the binding signal in test [1], in test [2] and in test [3] were 5.13 z-score, 5.96 z-score and 1.46 z-score, respectively.
In the case of GGAAAGAGGAACTGAAAAGG, the results for the binding signal in test [1], in test [2] and in test [3] were 6.31 z-score, 6.72 z-score and 2.28 z-score, respectively.
For CAAAAAGGCAAGTGGATGCT the same measures were -0.0802 z-score, -0.0353 z-score and 0.146 z-score.
Turning to AGGAAGGGGAAGTTCAGTGA, the binding signal in test [1] was 5.81 z-score; in test [2], 6.34 z-score; in test [3], 2.84 z-score.
With AAAAAAAGTAACTGGCTAGA, the binding signal in test [1] was -0.337 z-score; in test [2] it was -0.0989 z-score; in test [3], -0.219 z-score.
On to ATTTAAGGGAAGTGGGCGTG, for which the values for the binding signal in test [1], in test [2] and in test [3] were 3.42 z-score, 3.87 z-score and 1.77 z-score, respectively.
For TGACAGAGGAAGTGCAACCA the same measures were 3.01 z-score, 3.35 z-score and 2.38 z-score.
For CAAAATGGGAAGTGGTACAT the same measures were 5.4 z-score, 5.15 z-score and 2.3 z-score.
For AAAAAAAGGAAGTGCCACTA the same measures were 6.38 z-score, 6.57 z-score and 2.97 z-score.
In the case of CAAATGAGTAACTGATGCGG, the results for the binding signal in test [1], in test [2] and in test [3] were -0.204 z-score, -0.0814 z-score and -1.01 z-score, respectively.
Consider ACCTCTGGGAACTACTGTGG, for which the binding signal in test [1] was 0.297 z-score; in test [2], 0.358 z-score; in test [3] it was -0.443 z-score.
For ACATTCAGGAAGTGAAGTCA the same measures were 3.49 z-score, 3.38 z-score and 3.99 z-score.
For CCAATGAGGAAGAGAAAAAA the same measures were 2.26 z-score, 2.27 z-score and 1.04 z-score.
With TAAAACAGGAAGTGAGAGGG, the binding signal in test [1] amounted to 6.94 z-score; in test [2], 6.98 z-score; in test [3], 5.22 z-score.
For AAATAAAGGAAGTGGTAAGG the same measures were 4.81 z-score, 4.98 z-score and 2.61 z-score.
On to AGGGAAAGGAAGTGGTTGGA, for which the binding signal in test [1] came to 2.46 z-score; in test [2], 2.26 z-score; in test [3] it was 2.48 z-score.
For GATAAGAGGAAGTCCACTGT the same measures were 5.86 z-score, 6.19 z-score and 2.58 z-score.
Take CAAATGAGGAACTGATGGGG: the values for the binding signal in test [1], in test [2] and in test [3] were 5.63 z-score, 6.4 z-score and 1.51 z-score, respectively.
For CCAAAGGGGAAGTGGCTTGT the same measures were 5.85 z-score, 6.46 z-score and 2.91 z-score.
Take GACAAGAGGAACTGCATTCT: the values for the binding signal in test [1], in test [2] and in test [3] were 3.12 z-score, 3.05 z-score and 0.873 z-score, respectively.
For TAAAACAGGAAGTCCCATAG the same measures were 6.97 z-score, 7.02 z-score and 4.63 z-score.
For GAAGTAGGGAAGTGGTTTAA the same measures were 4 z-score, 3.31 z-score and 1.24 z-score.
For CTGGAGAGGAAATGTTTAAA the same measures were 1.49 z-score, 0.685 z-score and 2.45 z-score.
GAAAAAAGGAAGTAGTATAA: the binding signal in test [1] amounted to 6.96 z-score; in test [2], 6.63 z-score; in test [3] it was 3.15 z-score.
As to AAAAAGAGGAACTCCTCCCT, the binding signal came to 7.49 z-score in test [1], 7.25 z-score in test [2] and 2.96 z-score in test [3].
In the case of TGATGGAGGAAGTGGTAAGA, the binding signal in test [1] was determined as 3.63 z-score; in test [2], 3.26 z-score; in test [3], 2.36 z-score.
Regarding TAAAAGAGGAAGTGTTTTAG, the figures for the binding signal in test [1], in test [2] and in test [3] were 8.26 z-score, 7.47 z-score and 4.05 z-score, respectively.
For ACAAAAAGGGACTGTGCCCC the same measures were -0.214 z-score, 0.07 z-score and -0.864 z-score.
For TCAGGGAGGAAGTGACATTT the same measures were 4.03 z-score, 4.15 z-score and 3.12 z-score.
